Experimental data as given in PubChem BioAssay AID1347165 (National Center for Advancing Translational Sciences (NCATS), 2019).
Where “and” joins values, the source holds several entries; their conditions need not be identical. Equal values may be shown once. The whole screen tested about 220,000 compounds, of which about 5,700 (2.6%) were called active. The shares of active, inactive and inconclusive entries below differ from those in the screen. Calls follow the shape of the dose curve; as a rule, active = well fitted inhibition curve with a large enough effect; inconclusive = small, poorly fitted or top-dose-only effect; inactive = no such curve, though single readings can be large or run the other way. Potencies beside an inconclusive call are fits to weak or partial responses and may not hold up.

target: Lysine-specific demethylase 5B (Homo sapiens) (UniProt Q9UGL1); test: Primary screen for KDM5B Histone Demethylases FDH-coupled qHTS; settings: FDH-coupled NADH fluorescence (FDH is formaldehyde dehydrogenase); activity change, negative = inhibition: at 57.7 µM (top of the series) unless noted; also: nearly all actives have a fitted effect of over 70% in size; as to activity change, negative = inhibition: 0% is about no effect
Procedure, shortened: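 KDM5BΔAP (200 nM final) in 50 mM HEPES pH 7.5, 0.01% Tween-20 was preincubated 10 min at RT with compound over a concentration range. Substrate mix (H3K4me3 12.5 µM, α-KG 25 µM, Fe²⁺, ascorbate, NAD⁺, FDH) was added, and NADH fluorescence change over 30 min gave dose-response curves.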
Potency is read from the fitted curve at half-maximal effect; tags tell the direction and shape of the fitted curve.

Chain of UniProt Q9UGL1 (Q9UGL1 whole entry, looked up): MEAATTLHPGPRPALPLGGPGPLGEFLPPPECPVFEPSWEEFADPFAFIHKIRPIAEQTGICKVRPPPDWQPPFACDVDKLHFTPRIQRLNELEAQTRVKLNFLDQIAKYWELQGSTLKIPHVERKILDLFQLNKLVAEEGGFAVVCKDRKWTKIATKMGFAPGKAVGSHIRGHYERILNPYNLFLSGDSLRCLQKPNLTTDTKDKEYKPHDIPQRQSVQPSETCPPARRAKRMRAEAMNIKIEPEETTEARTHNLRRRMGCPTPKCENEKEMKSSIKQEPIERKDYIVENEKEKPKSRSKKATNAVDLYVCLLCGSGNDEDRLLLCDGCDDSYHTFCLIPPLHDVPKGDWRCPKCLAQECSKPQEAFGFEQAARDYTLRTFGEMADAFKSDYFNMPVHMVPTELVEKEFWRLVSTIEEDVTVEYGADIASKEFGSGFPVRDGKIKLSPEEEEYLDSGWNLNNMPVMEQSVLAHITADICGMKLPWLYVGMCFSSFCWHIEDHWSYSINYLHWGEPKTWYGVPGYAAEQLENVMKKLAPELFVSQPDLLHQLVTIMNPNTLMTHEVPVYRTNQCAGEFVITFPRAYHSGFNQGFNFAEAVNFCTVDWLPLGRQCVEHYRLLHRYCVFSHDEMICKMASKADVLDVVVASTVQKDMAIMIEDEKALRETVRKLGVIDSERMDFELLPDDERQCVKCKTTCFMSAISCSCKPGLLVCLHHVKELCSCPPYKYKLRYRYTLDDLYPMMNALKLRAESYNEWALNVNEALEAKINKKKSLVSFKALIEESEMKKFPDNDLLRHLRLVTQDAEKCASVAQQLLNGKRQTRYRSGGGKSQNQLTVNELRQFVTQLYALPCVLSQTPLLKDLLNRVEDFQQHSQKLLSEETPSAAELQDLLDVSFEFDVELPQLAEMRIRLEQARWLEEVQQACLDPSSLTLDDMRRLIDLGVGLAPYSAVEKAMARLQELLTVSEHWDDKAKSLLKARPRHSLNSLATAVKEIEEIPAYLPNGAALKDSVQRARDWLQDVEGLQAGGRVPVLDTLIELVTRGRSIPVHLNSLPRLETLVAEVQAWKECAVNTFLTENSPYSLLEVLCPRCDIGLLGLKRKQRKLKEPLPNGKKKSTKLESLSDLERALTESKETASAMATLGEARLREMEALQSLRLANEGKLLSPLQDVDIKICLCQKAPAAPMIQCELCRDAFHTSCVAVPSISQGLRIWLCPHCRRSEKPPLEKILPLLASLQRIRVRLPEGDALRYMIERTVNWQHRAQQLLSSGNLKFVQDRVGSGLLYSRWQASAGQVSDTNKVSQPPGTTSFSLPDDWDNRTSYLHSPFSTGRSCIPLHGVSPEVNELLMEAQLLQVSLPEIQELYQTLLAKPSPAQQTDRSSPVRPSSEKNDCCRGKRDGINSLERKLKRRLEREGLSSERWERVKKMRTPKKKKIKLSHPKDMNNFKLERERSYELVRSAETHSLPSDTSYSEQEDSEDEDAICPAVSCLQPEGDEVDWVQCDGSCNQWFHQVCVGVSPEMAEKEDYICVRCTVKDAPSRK

Structure (SMILES) | Potency | activity change, negative = inhibition
CCOC(=O)c1cc(-c2ccccc2)n(CCC(=O)Nc2ccc(Cl)c(C(F)(F)F)c2)c1C | inconclusive: 17.8 µM [inhibitor, single point] | –
Cc1nn(C)c2c1c(C(F)(F)F)cc(=O)n2Cc1cccc(Br)c1 | inconclusive: 39.8 µM [inhibitor, single point] | –
COc1ccccc1CNC(=O)c1ccc2nc(-c3ccccc3)c(-c3ccccc3)nc2c1 | inconclusive: 25.1 µM [inhibitor, partial curve, poor fit] | –
CCOc1ccc(/C=N/NC(=O)c2[nH]c3ccc(C)cc3c2C)cc1 | inconclusive: 39.8 µM [inhibitor, partial curve, poor fit] | –
O=C(CCc1nc2cccnc2n1Cc1cccs1)Nc1cccc(Cl)c1 | inconclusive: 15.8 µM [inhibitor, partial curve, poor fit] | –
Cc1ccc(-c2cc(C(=O)OCC(=O)NC3CC3)c3ccccc3n2)cc1 | inconclusive: 25.1 µM [inhibitor, partial curve, poor fit] | –
CC(=O)N1CCCC2(C1)CN(C)c1ccc(C(=O)NCCc3ccccc3)cc12 (stereo unspecified) | active: 35.5 µM | –
CCCNC(=O)CNC(=O)c1ccc2ccccc2n1 | inactive | –
Cc1ccc(-c2ccnc(N3CCC(N(C)Cc4ccon4)CC3)n2)c(C)n1 | inconclusive: 22.4 µM [inhibitor, partial curve, poor fit] | –
O=S(=O)(Nc1nc2n(n1)C(c1ccc(F)cc1)C=C(c1ccccc1)N2)c1ccc(Cl)cc1 (stereo unspecified) | inconclusive: 35.5 µM [inhibitor, partial curve, poor fit] | –
C=CCNC(=O)[C@@H]1[C@H](c2cc(OC)c(OC)c(OC)c2)c2cc3c(cc2[C@H](O)[C@H]1CO)OCO3 | inactive | –
O=C1COc2ccc(-c3cc4ccccc4o3)nc2CN1CCOc1ccccc1 | inconclusive: 50.1 µM [inhibitor, single point] | –
O=c1cc(-c2cccnc2)oc2c1ccc1ccccc12 | inconclusive: 28.2 µM [inhibitor, partial curve, poor fit] | –
Cc1ccc(CN2CCOCCNC(=O)CC2)s1 | inconclusive: 22.4 µM [inhibitor, partial curve, poor fit] | –
COc1cc(C)cc2oc(=O)c(CC(=O)NCc3ccc(C)cc3)c(C)c12 | inconclusive: 3.98 µM [inhibitor, full curve, poor fit] | –
COc1ccccc1-c1nc(C#N)c(N2CCN(C)CC2)o1 | inconclusive: 28.2 µM [inhibitor, partial curve, poor fit] | –
NC1CCc2nn(CC(=O)NCc3ccc4c(c3)OCO4)c(=O)n2CC1 (stereo unspecified) | active: 10 µM | –
O=S(=O)(Nc1ccc2nc(-c3cccc(Cl)c3)oc2c1)c1ccccc1 | inconclusive: 35.5 µM [inhibitor, partial curve, poor fit] | –
O=C(c1ccco1)N(Cc1cccnc1)Cc1cc2ccccc2[nH]c1=O | inconclusive: 28.2 µM [inhibitor, single point] | –
O=C(O)C(c1cccc(O)c1)N1CCN(C2CCCCC2)C(=O)C1 (stereo unspecified) | inconclusive: 8.91 µM [inhibitor, single point] | –
CCN1CCN(c2ccc3cc(S(=O)(=O)N4CCOCC4)ccc3n2)CC1 | inconclusive: 20 µM [inhibitor, partial curve, poor fit] | –
COC(=O)c1[nH]c2ccccc2c1NC(=O)CCC1CCCC1 | inconclusive: 39.8 µM [inhibitor, single point] | –

Structure (SMILES) | Potency | activity change, negative = inhibition
COc1cccc(/C=C/c2ccc3cccc(O)c3n2)c1O | inactive | –
COc1cccc(-c2ccc3c(N)c(C(=O)NCc4ccc(Cl)cc4)sc3n2)c1 | inconclusive: 17.8 µM [inhibitor, partial curve, poor fit] | –
Cc1ccc(C)c2c(=O)cc(CN3CCN(CCn4cncn4)CC3)[nH]c12 | active: 25.1 µM | –
O=C(CN1C(=O)NC(c2ccccc2Cl)C2=C1COC2=O)Nc1ccc2c(c1)OCO2 (stereo unspecified) | inconclusive: 6.31 µM [inhibitor, partial curve, poor fit] | –
O=C(NCC(F)(F)F)c1cc(Br)cn2ccnc12 | active: 28.2 µM and active: 35.5 µM | –
CCC(C)NC(=O)N1CCN(Cc2c(C)noc2C)CC1 (stereo unspecified) | inactive | –
CN(C(=O)C(=O)Nc1ccc2nc3n(c(=O)c2c1)CCCCC3)c1cccc(C(F)(F)F)c1 | inactive | –
C=CCC(C)(C)NC(C)c1ccccc1 (stereo unspecified) | inactive | –
Cc1cccc(NC(=O)Cn2ccn3nc4c(c3c2=O)CCCC4)c1 | inconclusive: 10 µM [inhibitor, partial curve] | –
CC(C)(C)NS(=O)(=O)c1cccc(NC(=O)c2ccccc2)c1 | inactive | –
CC1=C[C@@H](CNC(=O)NC2CCCCC2)[C@H](C(C)C)C[C@H]1Cc1nc2c(C)cccc2[nH]1 | inactive | –
COCC1CN(C(C)=O)CC12CCN(C(=O)COc1ccccc1)CC2 (stereo unspecified) | inactive | –
COc1ccc(-c2noc(-c3cccnc3NCc3ccco3)n2)cc1 | inconclusive: 1.26 µM [inhibitor, full curve, poor fit] | –
Cc1cccc(-n2c(=O)c3c(c4cc(C)ccc4n3C)n(CC(=O)NCCC3=CCCCC3)c2=O)c1 | inconclusive: 25.1 µM [inhibitor, partial curve, poor fit] | –
CN1C[C@H](C(=O)Nc2cccc(F)c2)C[C@H]1c1cccc(C(F)(F)F)c1 | inactive | –
COc1ccc(-c2onc(C)c2C)cc1S(=O)(=O)NCC1CCN(Cc2ccccc2F)CC1 | inconclusive: 28.2 µM [inhibitor, single point] | –
CCc1ccc(-c2nc(CN3CCCC(C(=O)N4CCN(c5cc(Cl)ccc5C)CC4)C3)c(C)o2)cc1 (stereo unspecified) | inconclusive: 1 µM [inhibitor, full curve, poor fit] | –
O=C(Nc1cccc(OC(F)(F)F)c1)C1(CCO)CCN(c2ncccn2)C1 (stereo unspecified) | active: 25.1 µM | –
COc1ccc(NC(=O)c2cc3c(N(C)Cc4ccccc4)nc(C)cn3n2)cc1F | active: 17.8 µM | –
O=C1CCN(C(=O)c2cc(C3CC3)[nH]n2)CCCCCCN1 | inconclusive: 12.6 µM [inhibitor, single point] | –
CCN(CC)Cc1nc2sc(C(=O)OC)c(C)c2c(=O)[nH]1 | inconclusive: 28.2 µM [inhibitor, partial curve, poor fit] | –
C=C(C)CNc1ccc(C(=O)N(CC)Cc2nccn2C)cn1 | inconclusive: 28.2 µM [inhibitor, single point] | –

Structure (SMILES) | Potency | activity change, negative = inhibition
O=Cc1csc(-c2ccc(C(F)(F)F)cc2)n1 | inactive | –
CC(=O)Nc1cc(C(=O)NCc2ccc(C)cc2)ccc1Sc1ccc(C)cc1 | inconclusive: 35.5 µM [inhibitor, single point] | –
CCCCN(Cc1cc2cc(OC)ccc2[nH]c1=O)S(C)(=O)=O | inconclusive: 10 µM [inhibitor, partial curve, poor fit] | –
CCCNC(=O)N1CCCC(c2nn[nH]n2)C1 (stereo unspecified) | inconclusive: 17.8 µM [inhibitor, partial curve] | –
O=C(c1c[nH]c2ccccc12)C(Sc1cc(Cl)ccc1Cl)c1ccccc1 (stereo unspecified) | inactive | –
CCOc1ccc(C(=O)NC2CCN(c3cnn(CC)c(=O)c3)CC2)cc1 | inactive | –
CN(Cc1ccc(Cl)c(Cl)c1)Cc1nc2ccccc2o1 | inactive | –
CC(C)CN(C)C(=O)c1cc(-c2cnn(C(C)C)c2)nc2ccc(F)cc12 | inconclusive: 28.2 µM [inhibitor, partial curve, poor fit] | –
CCCC(C)c1nnc(NC(=O)C2CCN(C(=O)c3ccccc3F)CC2)s1 (stereo unspecified) | inactive | –
O=C(Cn1c(-c2cccs2)cc2cc(Cl)ccc21)N1CCN(c2ccccc2)CC1 | inconclusive: 2.82 µM [inhibitor, partial curve, poor fit] | –
Cc1noc(C)c1[S+](=O)([O-])N1CCC2(CCN(Cc3cccs3)c3ccccc3O2)CC1 | inconclusive: 20 µM [inhibitor, single point] | –
COc1cncc(Nc2cnc3ccc(N(C)Cc4ccc(F)cc4)nn23)c1 | active: 35.5 µM | –
CCc1ccccc1-n1c2c(cc(C#N)c1=O)C(=O)CC(c1ccccc1)C2 (stereo unspecified) | inconclusive: 25.1 µM [inhibitor, partial curve, poor fit] | –
CCC1CCc2c(sc(NC(=O)C(c3ccccc3)c3ccccc3)c2C#N)C1 (stereo unspecified) | inactive | –
Cc1oc2cc(O)ccc2c(=O)c1Oc1ccc(F)cc1 | inconclusive: 14.1 µM [inhibitor, partial curve, poor fit] | –
CCC1CCc2nc3sc(C(=O)Nc4ccc(F)c(Cl)c4)c(N)c3cc2C1 (stereo unspecified) | – | inconclusive: -38.2% [inhibitor]
Cn1ncc2c(C(=O)N3CCC(C#N)CC3)cc(-c3cccnc3)nc21 | inconclusive: 79.4 µM [inhibitor, partial curve] | –
COc1ccc(-c2cc(N3CCC(NC(=O)c4cc(Cl)ccc4F)C3)n[nH]2)cc1 (stereo unspecified) | inconclusive: 3.55 µM [inhibitor, partial curve, poor fit] | –
Oc1ccc(Br)cc1/C=N/n1c(COc2ccccc2)n[nH]c1=S | inconclusive: 17.8 µM [inhibitor, partial curve, poor fit] | –
COCCNC(=O)C[C@@H]1C[C@H]2O[C@H](CNC3CCCC3)[C@@H](O)[C@H]2O1 | inactive | –
COc1ccc2[nH]c3c(c2c1)CCNC31CCN(C(=O)c2cn(C)cn2)CC1 | inconclusive: 17.8 µM [inhibitor, partial curve, poor fit] | –
CCC(C(=O)Nc1ccccc1C(=O)OC)n1nc(C)c2c(C)n(-c3ccc(C)cc3)nc2c1=O (stereo unspecified) | inconclusive: 35.5 µM [inhibitor, partial curve, poor fit] | –
